Data taken from ChEMBL document CHEMBL5724801, “EUbOPEN Chemogenomics Library - Multiplex” (2024).
Some entries of the source have several records that differ or are many. The other results are left out here. An entry can have further records. Values that stand side by side are repeats (runs, samples, wells, individuals or studies).

Key:
Format in all cases: toxicity, cell-based
[1] = system: Fibroblast; assay: Multiplex assay against human fibroblast
Method in brief: (§1)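 Cells stained live at seeding with Hoechst33342, BioTracker Green Microtubule Cytoskeleton Dye, MitoTracker Red and Annexin V Alexa Fluor 680 were imaged on a CQ1 microscope at 37°C and 5% CO2 after compound addition. Their classification by CellPathfinder machine-learning gating ran from Hoechst high-intensity objects versus normal cells, to healthy, pyknosed or fragmented nuclei among normal cells, to mitotic or apoptotic among pyknosed cells. Tubulin, mitochondrial-mass and membrane-permeability phenotypes are per cents of healthy-nucleus cells.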

[2] = system: U2OS; assay: Multiplex assay against U2OS; details: human; method in brief: as §1
[3] = system: HEK-293T; assay: Multiplex assay against HEK293T; details: human; method in brief: as §1
[4] = 12 h, 1 µM, compound concentration 1 uM
[5] = 24 h, 1 µM, compound concentration 1 uM
[6] = 48 h, 1 µM, compound concentration 1 uM
[7] = 48 h, 10 µM, compound concentration 10 uM
[8] = 12 h, 10 µM, compound concentration 10 uM
[9] = 24 h, 10 µM, compound concentration 10 uM

C=C(C)[C@H]1CN[C@H](C(=O)O)[C@H]1CC(=O)O [KAINIC ACID]
Population Apoptotic (%) [1, 4]: 6.06% and 27.27% | Population Tubulin-Different-Phenotype (%) [1, 5]: 5.43% and 17.07% | Population Tubulin-Different-Phenotype (%) [1, 6]: 1.79% and 15.18% | Population Mitochondria Different-Phenotype (%) [1, 7]: 10.84% and 0.44% | Population Tubulin-Different-Phenotype (%) [1, 7]: 2.46% and 17.33% | Total Cell Count [2, 6]: 1248 and 368 | Population Tubulin-Different-Phenotype (%) [3, 4]: 5.02% and 17.14% | Population Healthy Nuclei (%) [3, 8]: 64.75% and 21.02% | Population Pyknosed Nuclei (%) [3, 8]: 22.98% and 76.43% | Population Tubulin-Different-Phenotype (%) [3, 8]: 1.61% and 42.42% | Total Cell Count [3, 5]: 491 and 161 | Population Pyknosed Nuclei (%) [3, 9]: 12.86% and 59.16% | Total Cell Count [3, 9]: 583 and 191 | Population Pyknosed Nuclei (%) [3, 6]: 8.02% and 25.88% | Population Tubulin-Different-Phenotype (%) [3, 6]: 1.04% and 22.53% | Total Cell Count [3, 6]: 1348 and 255 | Population Pyknosed Nuclei (%) [3, 7]: 9.84% and 30.08% | Population Tubulin-Different-Phenotype (%) [3, 7]: 0.96% and 23.5% | Total Cell Count [3, 7]: 1260 and 268

COc1cc2ncnc(Nc3ccc(Oc4ccccc4)cc3C)c2cc1OC.Cl
Population Apoptotic (%) [1, 9]: 4.35% and 24% | Total Cell Count [2, 4]: 481 and 159 | Population Mitochondria Different-Phenotype (%) [2, 8]: 1.01% and 41.07% | Total Cell Count [2, 5]: 672 and 210 | Population Mitochondria Different-Phenotype (%) [2, 9]: 0.86% and 43.22% | Total Cell Count [2, 6]: 1278 and 342 | Population Mitochondria Different-Phenotype (%) [2, 7]: 1.17% and 23.3% | Total Cell Count [2, 7]: 759 and 231 | Population Healthy Nuclei (%) [3, 8]: 46.03% and 10.27% | Population Tubulin-Different-Phenotype (%) [3, 8]: 11.31% and 46.67% | Population Pyknosed Nuclei (%) [3, 5]: 19.1% and 59.01% | Total Cell Count [3, 5]: 644 and 161 | Population Healthy Nuclei (%) [3, 9]: 67.56% and 12.34% | Population Tubulin-Different-Phenotype (%) [3, 9]: 23.51% and 5.26% | Population Apoptotic (%) [3, 6]: 7.78% and 26.32% | Population Tubulin-Different-Phenotype (%) [3, 6]: 2.03% and 28.89% | Total Cell Count [3, 6]: 1387 and 196 | Population Tubulin-Different-Phenotype (%) [3, 7]: 3.87% and 17.39% | Total Cell Count [3, 7]: 770 and 197

O=C1NCc2ccc3c(-c4cccc(Cl)c4)c[nH]c3c21
Population Mitochondria Different-Phenotype (%) [1, 6]: 13.49% and 3.09% | Population Mitochondria Different-Phenotype (%) [2, 6]: 1.09% and 17.95% | Population Mitochondria Different-Phenotype (%) [2, 7]: 0.79% and 11.86% | Population Healthy Nuclei (%) [3, 4]: 43.88% and 14.48% | Population Tubulin-Different-Phenotype (%) [3, 4]: 6.56% and 38.1% | Population Mitochondria Different-Phenotype (%) [3, 8]: 46.55% and 0% | Population Mitochondria Different-Phenotype (%) [3, 5]: 27.22% and 6.67% | Population Mitochondria Different-Phenotype (%) [3, 6]: 65.38% and 18.99% | Population Tubulin-Different-Phenotype (%) [3, 6]: 2.1% and 20.25% | Population Healthy Nuclei (%) [3, 7]: 40.09% and 10.24% | Population Tubulin-Different-Phenotype (%) [3, 7]: 4.49% and 15.38%
